Assay results published in PMC5062966 (Nucleic Acids Research, 2016).

Target: His-hTERT fusion protein (human, UniProt O14746)
Test: pull-down

binding result: binds
B1: GST-Sp1 fusion protein (natural protein)
chain: MSDQDHSMDEMTAVVKIEKGVGGNNGGNGNGGGAFSQARSSSTGSSSSTGGGGQESQPSPLALLAATCSRIESPNENSNNSQGPSQSGGTGELDLTATQLSQGANGWQIISSSSGATPTSKEQSGSSTNGSNGSESSKNRTVSGGQYVVAAAPNLQNQQVLTGLPGVMPNIQYQVIPQFQTVDGQQLQFAATGAQVQQDGSGQIQIIPGANQQIITNRGSGGNIIAAMPNLLQQAVPLQGLANNVLSGQTQYVTNVPVALNGNITLLPVNSVSAATLTPSSQAVTISSSGSQESGSQPVTSGTTISSASLVSSQASSSSFFTNANSYSTTTTTSNMGIMNFTTSGSSGTNSQGQTPQRVSGLQGSDALNIQQNQTSGGSLQAGQQKEGEQNQQTQQQQILIQPQLVQGGQALQALQAAPLSGQTFTTQAISQETLQNLQLQAVPNSGPIIIRTPTVGPNGQVSWQTLQLQNLQVQNPQAQTITLAPMQGVSLGQT[about 120 residues left out here]DSEGRGSGDPGKKKQ[about 80 residues left out here]QNKKGGPGVALSVGTLPLDSGAGSEGSGTATPSALITTNMVAMEAICPEGIARLANSGINVMQVADLQSINISGNGF
